Values joined by “and” are separate entries in the source; they are usually repeats but may differ in a detail not shown here. Identical values can stand only once. Among all 350,000 compounds or so, about 31,000 (8.9%) were called active. The inconclusive results got no clear call from the source; some entries with a clear call stand among them for comparison. The call rests on the fitted dose curve; in most records, active means well fitted inhibition curve with a large enough effect; inconclusive means small, poorly fitted or top-dose-only effect; inactive means no such curve, though single readings can be large or run the other way. Potencies of inconclusive entries are doubtful fits and often do not repeat.
biological target: Histone-lysine N-methyltransferase EHMT2 (Homo sapiens) (UniProt Q96KQ7); assay: qHTS Assay for Inhibitors of Histone Lysine Methyltransferase G9a; settings: G9a H3K9 monomethylation, AlphaScreen, 2 h; activity, negative = inhibition: at 59 µM (top of the series) unless noted; further: nearly all actives have a fitted effect of over 75% in size
UniProt Q96KQ7, sequence (Q96KQ7 whole entry, looked up): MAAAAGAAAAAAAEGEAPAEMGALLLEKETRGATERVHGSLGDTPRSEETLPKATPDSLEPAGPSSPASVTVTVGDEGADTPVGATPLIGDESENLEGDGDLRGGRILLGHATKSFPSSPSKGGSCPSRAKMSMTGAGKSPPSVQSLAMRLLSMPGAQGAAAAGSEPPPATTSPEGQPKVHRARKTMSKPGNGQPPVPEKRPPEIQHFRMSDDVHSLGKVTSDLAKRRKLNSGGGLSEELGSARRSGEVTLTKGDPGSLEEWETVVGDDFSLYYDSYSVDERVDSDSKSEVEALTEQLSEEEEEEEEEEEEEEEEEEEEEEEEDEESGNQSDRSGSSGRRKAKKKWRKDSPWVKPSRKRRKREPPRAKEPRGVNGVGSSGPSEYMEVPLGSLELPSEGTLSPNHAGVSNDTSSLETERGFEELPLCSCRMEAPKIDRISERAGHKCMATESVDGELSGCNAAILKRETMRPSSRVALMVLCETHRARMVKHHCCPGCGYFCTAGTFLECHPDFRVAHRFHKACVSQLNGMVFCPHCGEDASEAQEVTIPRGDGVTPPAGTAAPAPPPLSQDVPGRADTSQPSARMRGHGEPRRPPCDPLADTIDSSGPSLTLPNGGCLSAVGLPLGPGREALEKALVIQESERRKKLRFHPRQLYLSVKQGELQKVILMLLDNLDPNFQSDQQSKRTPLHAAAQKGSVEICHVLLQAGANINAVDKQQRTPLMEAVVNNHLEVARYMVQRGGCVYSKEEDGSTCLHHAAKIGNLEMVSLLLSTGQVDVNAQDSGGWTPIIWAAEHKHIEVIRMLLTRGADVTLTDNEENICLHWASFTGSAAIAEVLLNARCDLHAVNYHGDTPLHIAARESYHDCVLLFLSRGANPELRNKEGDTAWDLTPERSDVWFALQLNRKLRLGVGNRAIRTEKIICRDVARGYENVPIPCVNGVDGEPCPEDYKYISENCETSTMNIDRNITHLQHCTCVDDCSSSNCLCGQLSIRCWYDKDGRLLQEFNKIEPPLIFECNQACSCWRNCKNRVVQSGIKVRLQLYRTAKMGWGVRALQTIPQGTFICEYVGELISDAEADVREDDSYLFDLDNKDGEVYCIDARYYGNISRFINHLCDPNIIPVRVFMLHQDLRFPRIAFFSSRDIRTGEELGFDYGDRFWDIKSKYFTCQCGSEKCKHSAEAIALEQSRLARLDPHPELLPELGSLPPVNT
Outline: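 AlphaScreen detection with an anti-monomethyl H3K9 antibody quantified product after a 2 h room-temperature reaction containing 500 nM biotinylated H3K9 peptide, 20 µM SAM and 20 nM enzyme, which had been preincubated 15 min with compound.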
On the % scale 0 is the no-effect control and ±100 the full control effect; potency means the concentration at half of the fitted maximal effect; tags describe the fitted curve by direction and shape.

| Structure (SMILES) | Potency | activity, negative = inhibition |
| --- | --- | --- |
| CCN(CC)CCNS(=O)(=O)c1ccc(Cl)cc1 | inconclusive: 50.1 µM [inhibitor, partial curve, poor fit] | – |
| CCN(CC)CCn1c2c(c(SCC(=O)Nc3nccs3)nc1=O)CCCC2 | inconclusive: 39.8 µM [inhibitor, partial curve, poor fit] | – |
| N.N.O=C(O)C1(C(=O)O)CCC1.[Pt] | active: 0.631 µM | – |
| Cc1ccccc1NC(=O)CSc1nnc(Cc2ccccc2)c(=O)n1N | – | inactive: -7.09% [at 102 µM] |
| COc1ccccc1N1C(=O)Cc2ccccc2C1=O | – | inactive: -42.8% [at 102 µM] |
| O=C(COC(=O)C1CC1)NC(=O)c1ccccc1 | – | inactive: 43.5% [at 12.7 µM] |
| COc1ccccc1N1CCN(C(=O)c2cccc3c(=O)c(C)c(-c4ccccc4)oc23)CC1 | inconclusive: 89.1 µM [inhibitor, single point] | – |
| CCOC(=O)c1ccc(NC(=O)CC2Sc3ncnn3C2=O)cc1 (configuration not stated) | active: 2.24 µM | – |
| CCOC(=O)N(C)c1ccc(C(O)(C(F)(F)F)C(F)(F)F)cc1 | – | inactive: -3.44% [at 12.7 µM] |
| O=C(NC(=S)Nc1nc(-c2ccccc2)cs1)c1cccs1 | inconclusive: 3.55 µM [inhibitor, partial curve, poor fit] | – |
| CC1CCCN(S(=O)(=O)c2ccc(NC(=O)CN3C(=O)NC(C)(c4ccccc4)C3=O)cc2)C1 (configuration not stated) | active: 56.2 µM | – |
| Cc1cccc(C(=O)NCN2CCN(c3ccccc3C#N)CC2)c1 | inconclusive: 70.8 µM [inhibitor, partial curve] and inconclusive: 21.2 µM [inhibitor, partial curve, poor fit] | – |
| CNC(=O)c1ccc(OC2CSC2)cc1 | inconclusive: 8.91 µM [inhibitor, single point] | – |
| COc1ccccc1NC(=O)CN1CCN(CC(=O)Nc2cc(C)ccc2OC)CC1 | – | inactive: -5.33% [at 102 µM] |
| COc1cccc(C(=O)Nc2c(C(=O)N3CCN(c4ccc(F)cc4)CC3)oc3ccccc23)c1 | – | inactive: -47.1% |
| CCOc1cc(/C=C2/NC(=O)NC2=O)cc([N+](=O)[O-])c1O | inconclusive: 31.6 µM [inhibitor, single point] | – |
| O=C(c1cccnc1)N1CCN(S(=O)(=O)c2cccc(Cl)c2)CC1 | – | inactive: 13.9% [at 102 µM] |
| O=C(Cc1ccc(F)cc1)Nc1nnc2n1CCS2 | active: 10 µM | – |
| COc1cccc(OC)c1C(=O)NC(=S)Nc1ccc2c(c1)Cc1ccccc1-2 | inconclusive: 50.1 µM [inhibitor, partial curve, poor fit] | – |
| CCOc1ccc(C(=O)Nc2cccc3ncccc23)cc1Cl | – | inactive: -8.32% [at 102 µM] |
| CCOc1ccc(C(=O)c2oc3ccccc3c2NC(=O)Cc2coc3ccc(CC)cc23)cc1 | – | inactive: 15.4% |
| CCOC(=O)c1c(-c2ccccc2)csc1NC(=S)NC | inconclusive: 2.51 µM [inhibitor, full curve, poor fit] | – |
| CCc1ccccc1OCC(=O)Nc1ccc(S(=O)(=O)Nc2nc(C)cc(C)n2)cc1 | inconclusive: 31.6 µM [inhibitor, single point] | – |
| CCOc1ccccc1-n1nnc(-c2nsc(NC(=O)c3ccc(C)cc3)n2)c1C | – | inactive: -0.22% |

| Structure (SMILES) | Potency | activity, negative = inhibition |
| --- | --- | --- |
| COc1ccccc1CNC(=O)N1CCN(c2ccccc2)CC1 | inconclusive: 89.1 µM [inhibitor, single point] | – |
| COc1cccc(NC(=O)c2cc(-c3ccc(C)o3)nc3ccccc23)c1 | active: 8.91 µM | – |
| CCc1ccc2occ(CC(=O)Nc3ccccc3C(F)(F)F)c2c1 | – | inactive: -8.6% |
| Cc1ccc2c(c1)C1CN(C)CCC1N2Sc1ccccc1[N+](=O)[O-] (configuration not stated) | – | inconclusive: -99.9% [inhibitor] |
| Cc1nc2cnc(N3CCOCC3)nc2n(C[C@H]2CCCO2)c1=O | – | inactive: 3.32% [at 0.501 µM] |
| CCOc1cc(/C=N/Nc2nc3ccccc3[nH]2)cc(Br)c1OCC(=O)N(C)C | – | inactive: 15.5% [at 102 µM] |
| CN(C)CCNC(=O)c1cc2c(=O)n(C)c3ccccc3c2n1C | inconclusive: 89.1 µM [inhibitor, single point] | – |
| CCOC(=O)Cc1nnc(NC(=O)c2ncn[nH]2)s1 | inconclusive: 0.794 µM [inhibitor, full curve, poor fit] | – |
| COc1ccc(N2CCN(C(=O)c3ccc(NS(=O)(=O)c4cccs4)cc3)CC2)cc1 | inconclusive: 44.7 µM [inhibitor, partial curve] | – |
| COc1ccccc1N1CCN(CC(=O)Nc2ccc(CN3CCCCC3)cc2)CC1 | active: 10 µM | – |
| CCOC(=O)c1c(-c2ccc(C)cc2)csc1NC(=O)c1cc(=O)c2ccc(C)cc2o1 | – | inactive: -20.1% |
| O=C(CSc1ccccn1)N/N=C/c1cc([N+](=O)[O-])ccc1O | – | inactive: -4.33% [at 12.7 µM] |
| Oc1ccc(CNc2ccccc2F)c2cccnc12 | active: 1 µM | – |
| Cn1c(=O)c2c(=O)cc(NNC(=O)CC#N)[nH]c2n(C)c1=O | inconclusive: 8.91 µM [inhibitor, full curve] | – |
| Cc1ccccc1OCc1nc2ccc(S(=O)(=O)N3CCOCC3)cc2[nH]1 | active: 3.55 µM | – |
| COc1ccc(NC(=O)c2ccc(-n3c(C)ccc3C)cc2)c(OC)c1 | inconclusive: 70.8 µM [inhibitor, single point] | – |
| CCCn1c(N)c(C(=O)CSc2nc3ncc(Cl)cc3[nH]2)c(=O)[nH]c1=O | inconclusive: 28.2 µM [inhibitor, partial curve, poor fit] | – |
| NC1(C(=O)O)CCc2cc(C(=O)O)ccc21 (configuration not stated) | active: 4.47 µM | – |
| CC(=O)N1CCc2cc(S(=O)(=O)NC(C(=O)Nc3ccc(C)cc3C)C(C)C)ccc21 (configuration not stated) | – | inactive: 3.16% |
| CCOC(=O)c1cnc2ccc(Br)cc2c1NCCCN1CCOCC1 | inconclusive: 70.8 µM [inhibitor, partial curve] | – |
| COc1ccc(NC(=O)C2CCCN(S(=O)(=O)c3ccc(Br)s3)C2)cc1 (configuration not stated) | inconclusive: 7.08 µM [inhibitor, single point] | – |
| NC(CO)C(=O)NNCc1ccc(O)c(O)c1O (configuration not stated) | active: 2.51 µM and active: 1.58 µM and active: 1.41 µM | – |
| O=C(c1ccc2oc(Cc3ccc(Cl)cc3)nc2c1)N1CCCCC1CCO (configuration not stated) | inconclusive: 17.8 µM [inhibitor, partial curve, poor fit] | – |
| COc1cccc2cc(C(=O)N3CCN(c4ccccc4F)CC3)c(=O)oc12 | inconclusive: 89.1 µM [inhibitor, single point] | – |

| Structure (SMILES) | Potency | activity, negative = inhibition |
| --- | --- | --- |
| COc1ccc(C2SCC(=O)N2CCc2ccc(OC)c(OC)c2)cc1 (configuration not stated) | active: 11.2 µM | – |
| CCCCNC(=O)N(O)C1N(CCCC)C(=O)N(CC(=O)OC)C1(C)C (configuration not stated) | inconclusive: 4.47 µM [inhibitor, full curve, poor fit] | – |
| CCN1CCN(C(=O)c2ccc3c(c2)S(=O)(=O)c2ccccc2C3=O)CC1 | active: 50.1 µM | – |
| CCOc1ccc2nc(NCCNC(=O)C3CC3)c(C)cc2c1 | active: 79.4 µM | – |
| O=C(NC1CCCC1)c1sc(=S)n2c1[nH]c(=O)c1ccccc12 | inconclusive: 28.2 µM [inhibitor, single point] | – |
| COCCSc1ccccc1C(=O)Nc1ccncc1 | inconclusive: 2 µM [inhibitor, partial curve, poor fit] | – |
| CCOC(=O)Cc1csc(N/C(=N/S(=O)(=O)c2ccc(Cl)cc2)c2ccccc2)n1 | inconclusive: 89.1 µM [inhibitor, single point] | – |
| Nc1nc(-c2ccc3c(c2)OCCO3)cs1 | inconclusive: 31.6 µM [inhibitor, single point] | – |
| O=C(Nc1sc2c(c1-c1nc3ccccc3[nH]1)CCCC2)C1CC1 | active: 50.1 µM | – |
| CN(C(=O)COC(=O)CNC(=O)c1ccc2ccccc2c1)c1c(N)n(Cc2ccccc2)c(=O)[nH]c1=O | inconclusive: 89.1 µM [inhibitor, single point] | – |
| Cc1cccc(NC(=O)CN(C)C(=O)/C=C/c2ccccc2)c1C | – | inactive: -38.7% [at 102 µM] |
| O=C(NCc1cccs1)c1ccc(CSc2nc3cccnc3n2Cc2ccccc2F)cc1 | active: 2.51 µM | – |
| CCOc1ccc(S(=O)(=O)N2CCN(CCNS(=O)(=O)c3ccc(C)cc3)CC2)cc1 | inconclusive: 89.1 µM [inhibitor, partial curve, poor fit] | – |
| C(=N\Nc1ccc2ccccc2n1)/c1ccc2c(c1)OCO2 | inconclusive: 79.4 µM [inhibitor, single point] | – |
| O=C(O)c1ccccc1-c1ccccc1C(=O)Nc1ccccc1Br | – | inactive: 36.7% [at 102 µM] |
| O=C1CC(Sc2ncccn2)C(=O)N1c1ccccc1 (configuration not stated) | inconclusive: 100 µM [inhibitor, single point] | – |
| O=[N+]([O-])c1cc(S(=O)(=O)C(F)(F)F)ccc1N1CCN(c2ccccc2)CC1 | active: 20 µM | – |
| O=C(CC1Oc2ccccc2NC1=O)NCCCN1CCN(Cc2ccccc2)CC1 (configuration not stated) | inconclusive: 56.2 µM [inhibitor, partial curve] | – |
| COc1ccc(-c2cc(C(F)(F)F)nc(S(=O)(=O)CCCC(=O)Nc3cccnc3Cl)n2)cc1OC | inconclusive: 70.8 µM [inhibitor, single point] | – |
| OCCNc1ncnc2ccc(Br)cc12 | inconclusive: 100 µM [inhibitor, single point] | – |
| CCCn1c(CN2CCN(c3cccc(Cl)c3)CC2)nc2c1c(=O)n(C)c(=O)n2C | inconclusive: 89.1 µM [inhibitor, single point] | – |
| CC(=O)C1=C(O)C(=O)N(CCc2c[nH]c3ccccc23)C1c1ccco1 (configuration not stated) | inconclusive: 10 µM [inhibitor, partial curve, poor fit] | – |
| O=c1cnnc(N/N=C/c2ccc3c(c2)OCO3)[nH]1 | active: 44.7 µM | – |
| Cn1c(NCc2ccccc2)nc2c1c(=O)n(Cc1ccc(Br)cc1)c(=O)n2C | inconclusive: 79.4 µM [inhibitor, single point] | – |
